Assay results from the RNAGym collection of RNA variant scans (doi:10.7554/elife.90254).
The source gives no read counts; variants with many changes may rest on few reads.

B1: LINE1-mini (parent)
chain: GGCAGAGCUCAACACAGCGUGGCAAAGUGGCUGUGGCUAGACUGCC

Variants of: B1
Assay: self-cleavage, relative activity (ratio to wild type); higher = more cleavage; in vitro, sequencing; the parent is a self-cleaving ribozyme

Variant | self-cleavage
G5U G21C G40C | 0.04
C3G A11U G29A | 0.02
A25G G27C A41C | 0
G19C G22C C23U | 0.3
G5U C10A C13G A16C C23A | 0.05
G5C C15G G19A | 0.02
C15A C37G G40C C42U | 0
C18G A26G G33C | 0.01
G5U A26U G36A | 0.49
C18U A25G C37U U38C A39U A41G | 0.03
G7U A12C U38C | 0.01
A4C A6C G7C | 0.14
C15U C23A G40U | 0.01
U9G G22U A41G | 0.07
A4G G7U G33U | 0.26
A11C A14U C23U G36A C42A | 0
A6G C13A G17C G19U A24U | 0.16
A16G A26G G27A | 0.14
G35U A39U G44A | 0.07
G1U C10G G19A A26U C37U | 0.01
G19U G21A G35U | 0.21
G1C C15U G19U | 0.04
G2A C13U G19A | 2.2
A6U A25U A39U C45A C46U | 0.64

Variant | self-cleavage
C3A U9C C13G C37U | 0.05
C3A A4U C23A U32G G40U C46G | 0.06
C18U U20G G33A G40C | 0.02
C8U C10A U20A C23A | 0.05
C3U A11G A12U G40C C46U | 0
A12U A16G G35U | 0.12
G5C U9A C46G | 0.02
C3A C10A G27C | 0.03
C10G C15G A25C | 0.03
C8U U32G G33A | 0.46
G7A U20C A26C G40A | 0
A6C A16G G30U | 0.13
A4C G36A C45U | 0.27
A25G U32C A39C | 0.03
G7C C23U A24U | 0.27
A4U C10A U32C | 0.05
A6C U9G G17A G33A G36A C42G | 0
C10G U32A C46A | 0
C3U G22C G27U | 0.12
C3U C8U G22A A24G A41G G44A | 0.36
A39U C42A C45A | 0.04
G2C A14C G44C | 0.23
C31G U34G G44C | 0.02
G19U G27A G30C G35U C42G | 0.07

Variant | self-cleavage
G7C C8A U28C C46G | 0.08
A16G G29U G36U | 0.1
C3A C15G C45G | 0.08
A4U G40U U43A | 0.06
G5C U20G U32A | 0.09
G19A U32G G36U | 0.11
G5C C13G C18G G30U | 0.05
G5A G21A C31U U38G | 0.02
A6C C15U A26G G36A | 0.08
C10U C15U A16U C23G A39C | 0.06
G2U A24G C46U | 0.07
C13U G19A G44C | 0.01
C3G U43C G44A | 0.07
G17C A26C G35U C37U | 0.02
C3U G17U C31G C37U | 0.13
G5A G36A G40A | 0.23
A4G G17U U38C C46A | 0.05
C8U C15G A16G U28A C37G | 0.13
C13U A16C U32A | 0.03
A4U U28G C46G | 0.04
G7A G29A G40U | 0.86
G5A C13U G33U A41U | 0.05
A4G G5C G7C G40C | 0.3
A11G C18A U43A | 0.01

Variant | self-cleavage
C13U U20G C42A | 0.02
C3U G7C A39U | 0.08
C3U A4U C8U G29U G30A G35A | 0.08
A14U G17C G36A | 0.09
A12G U34G U43A | 0.06
A12C A14U U32A | 0.05
G1A A6U G21A G30C | 0.8
G2U G5C G40A | 0.02
C8U C15U C23A G27C A39G | 0.02
A4G U9C C10A A16C G27C C42U | 0.01
A6C A12C C37G | 0.01
A12U G29C G33U | 0.06
A4G A11U A12C C13U G30U | 0.02
C13A G35U C42G G44C | 0.05
C3G G19A G36U G40A | 0.24
G21A C31U U34G | 0.03
A6G C15G G19C G36A C37A | 0.02
G17U G19C U32C A41G | 0.07
G2U G7U C10G C15G A26U | 0.01
C8U G35U G40U | 0.14
U9C C13G G22C C46A | 0.01
A12C C13U G19U G27C G29A G33A G36C | 0.02
G1A A6U C45G | 1
G1U G7U G22A | 0.03

Variant | self-cleavage
A4U U34C C37U A41U | 0.06
G2C C3A C23A A25C A39U | 0.28
C3G A4G G5A C8U U43C | 0.05
G2A C3U G7A C8G C15U G35U | 0.98
U32C C37A U38C C45U | 0
A12C U20C G29C C45U | 0.02
G27A A41G U43C | 0.03
U38G U43A C45U C46U | 0.05
A4G G7C A24G | 0.54
U9C C10A U38A | 0.02
G7C A11U C15A | 0.02
G2U C10A U20G A39G | 0
G1U C8A G22U G44C | 0.18
C10U A12G C13G C23A G40A | 0.01
C3U C15U G35U U38G A41C | 0.03
A12U A16C G40A C42G | 0.08
C8U A16G G35C G36A | 0.14
G2U C3U A14C C46G | 0.03
A4U G19A C46A | 0.34
A11C G19U G27A | 0.04
C8G A14U G44U | 0.02
G2U A4G C23A G35U C37U A41U C46U | 0.01
C3G A12G G36U C46U | 0.04
C10G C15G G19U | 0.03

Variant | self-cleavage
G5U C13U G30U C31G G44A | 0.01
C37G U38C G44A | 0.03
C13U A25U U38C A39C C42U | 0.04
A11C A16U G22U | 0
C13A A16U A24C U34A C37A | 0.02
U9C C15A G27U | 0
G2A G17C C23A | 0.82
A11U C13G G19U | 0.01
C3A G5U C37A C42G | 0
C3A G7C A11G | 0.07
U9C C10A C15G | 0
C3G U28G U38C | 0.2
G29U C37G G40A G44U | 0.2
C3A A4U A6G C18A A24G | 0.12
C3G U9C U38C | 0.06
C15U G29U C45A | 0.07
U9C A11C G17C G19C U20C A26G G30U | 0.01
A4U C15A C18U C23U U43C | 0.01
A14U A16C C23G A26C | 0.03
A6C A14U C15G A16C | 0.07
U28G G44U C46A | 0.05
G5C C10A G22U | 0.01
G7U G27U U32A C37G G40C | 0.05
A11C A25G G33C G40C | 0.01

Variant | self-cleavage
A4C C42G C45A | 0.03
C8U G30U U43C | 0.1
C8G G17A C23U A26U C37A | 0.02
A12U G17U C18U A25U A26G | 0.02
A16U C42G C45A | 0.02
C8G G27U C46U | 0.08
G5C G19A G33A G40A | 0.68
A11G G27U A41U | 0.02
G5A C18U G27A G29C | 0.04
C8U A16U A24U C37A | 0.01
G7U A16G G30U U32A G33U G40U | 0.04
G19A G40A C45A | 0.08
C15A A16U A25C G36U C37A | 0.02
C10U A16G G17U | 0.14
G27C U38C C42U | 0.03
G19U G40U C45U | 0.02
G1U C23A G36U | 0.02
C10G G22U G27A | 0.08
U9A C13U G44C | 0.28
A16U G19C G27U G29C A41G | 0.08
G1A C8U A12C A25U C46U | 0.11
C3U C8U A16G G17C U20C | 0.01
C3G G7A A11C A12G A25C U38G | 0
